Data on 22 molecules can be found in article PMC12136788.

This is one part of the list.

T1: UNK ZnF1-3 (human, UniProt Q9C0B0 31-174)
T1 sequence: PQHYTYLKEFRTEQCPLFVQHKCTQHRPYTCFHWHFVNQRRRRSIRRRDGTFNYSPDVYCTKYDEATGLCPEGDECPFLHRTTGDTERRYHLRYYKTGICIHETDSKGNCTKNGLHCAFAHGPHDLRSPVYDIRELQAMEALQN

B1: chr4:77932910:77932911:+_ENSG00000138758_ENST00000541121|hu_mus|motif|central (ssRNA)
RNA: GGGAGUUCUACAGUCCGACGAUCUUUAAUUUUCAAUUCUUCUUGCAAGUAGGCCUCAAACUGGGCGUCAAUGUAUUCCACGGUAGGCUUAUAGCUGUCAUCUUUAUUAAUCUGGUCUCCAAAUCCCACUGUGUCAACGAUUGUCAACAGAGGAUUGAGCAUCA
B2: 110476715_110494910_6061_CDS_ENSMUSG00000044791_ENSMUST00000153838|mouse|control|control (ssRNA)
RNA: GGGAGUUCUACAGUCCGACGAUCUUCAGCUACUGUGCUCUCCUUUUCAGUUUGACUUUUCUUUGGAAUCCGAUACACCUCCUUUAGAUCUUUCCAACUGUCUAGUAACUUGGUAGCCAAAUCACUUAUAUCCACUGUUUUAUCCAACAGAGGAUUGAGCAUCA
B3: chr15:96521860:96521861:-_ENSMUSG00000022462_ENSMUST00000023099|mus_mus|FALSE|FALSE (ssRNA)
RNA: GGGAGUUCUACAGUCCGACGAUCGAACUCUUUUGUGGGACACAGUAAGUGAGUGACGGAACUCCGGAUAGGGAAAAUAACUACUGGGACCGUGAGGGUGACAGCCACCAGCACAGCCAAUCGGACAACAAGGAGAAGAAUGUCCAACAGAGGAUUGAGCAUCA
B4: chr2:84898283:84898284:+_ENSMUSG00000033955_ENSMUST00000148682|mus_mus|FALSE|FALSE (ssRNA)
RNA: GGGAGUUCUACAGUCCGACGAUCUUGAGGUGACCCAGGUCUUGGAAACGUCGGUAGGUGCUUCAGAGCAAGCCAGUUUAGCUAGGUCCCCAUUCAUUGCCGGGCUGGAAGUGAGGUUCCUCUCCUCAGGAGUCUUGCUAUGCUCAACAGAGGAUUGAGCAUCA
B5: chr17:57752078:57752079:+_ENSG00000141367_ENST00000269122|hu_hu|motif|central (ssRNA)
RNA: GGGAGUUCUACAGUCCGACGAUCAAUCAAGUUUUUUAUGACAUCUUCAGAACAGUCAACAUCAAGUAAUCCUCCAAUAACGGCAGGAAGUCGACUUGGAUUCACCUUCUGUACAUAUAUCUCUAUAUACUUUUGAAGAUUAUUCAACAGAGGAUUGAGCAUCA
B6: chr7:141445308:141445309:+_ENSG00000106028_ENST00000265304|hu_hu|hu_hu_hu_mus_False|28_68 (ssRNA)
RNA: GGGAGUUCUACAGUCCGACGAUCUAUGAUUGUUGUUGCUUGCCGCCUCACAUUGUUUUUAUCCAUGUAUUCACCAUAGUCCACUUUCCCUUCCACAAAUAUACGAGACCCCUUUUUCACAUACUGAUAUGCCACAUCUCUGAGCAACAGAGGAUUGAGCAUCA
B7: chr15:98867917:98867918:+_ENSMUSG00000043091_ENSMUST00000058914|mus_mus|FALSE|FALSE (ssRNA)
RNA: GGGAGUUCUACAGUCCGACGAUCAGGGUCACAUUUCACCAUCUGGUUGGCUGGCUCAAAGCAGGCAUUGGUGAUCUCUGCUACUGUAAGCUGCUCAUGGUAGGCUUUCUCAGCAGAGAUGACAGGGGCAUAAGUGGCCAGAGGCAACAGAGGAUUGAGCAUCA
B8: chr9:95013113:95013114:-_ENSG00000196305_ENST00000443024|hu_hu|hu_hu_hu_mus_False|68_108 (ssRNA)
RNA: GGGAGUUCUACAGUCCGACGAUCCUCAGUGAGAAAAGGCGUGUAAGGGGCCAUCAGUCUGCACAGAGAAAGCAGAACACUGAACAGUGUCUCCAGAGCCAUGACACAGUCUUCCACCCCACUCUCACCCUUUAACCUCCUCCUCAACAGAGGAUUGAGCAUCA
B9: chr3:176740097:176740098:-_ENSG00000177565_ENST00000430069|hu_hu|motif|central (ssRNA)
RNA: GGGAGUUCUACAGUCCGACGAUCUGUUUUUUACACCACAAAAGGAGGCACUUUCAGUAUCUGUAAAAGGUAUUUAAUCCGGAAACAUACUUACCUAGAGAAUAAUUAAAACAGAAUUCAAUACAAUCUAGUAUCUAUUAGGAACAACAGAGGAUUGAGCAUCA
B10: chr20:46266449:46266450:+_ENSG00000124151_ENST00000372004|hu_mus|FALSE|FALSE (ssRNA)
RNA: GGGAGUUCUACAGUCCGACGAUCCAUCUGCUGUUUGGCCCCUGGGUGACCGCCAUUUGUAGGAUUGUUGUAGAAGUCAGAACUGGUCAAAUCUCCAAGAAUGGCAUCUAGAUUAUCCAGGUCUCCCGAUACCUCCUCGUUCGUCAACAGAGGAUUGAGCAUCA
B11: chr7:140404665:140404666:+_ENSG00000090266_ENST00000247866|hu_hu|hu_hu_hu_mus_False|38_38 (ssRNA)
RNA: GGGAGUUCUACAGUCCGACGAUCUGCUCCUACUCGUCCAGAGAGUUUACAGUGUCAGUCCUCGUCAUCAGGAGGGAUUCCCAGUUCUUCAUCUGUCCACUGGGAAGGAUCUGGAUAUGAAAAGUGACCCAGCACAGCAUCCGACAACAGAGGAUUGAGCAUCA
B12: chr6:30690706:30690707:+_ENSG00000196230_ENST00000327892|hu_mus|FALSE|FALSE (ssRNA)
RNA: GGGAGUUCUACAGUCCGACGAUCUGAGCGAACGGAGUCCAUAGUCCCAGGUUCUAGAUCCACCAAGAUAGCUCGAGGGACAUACUUGCCACCUGUGGCUUCAUUAUAGUACACAGAGAUUCGGUCCAGCUGCAGGUCGCUGUCCAACAGAGGAUUGAGCAUCA
B13: 64651600_64654746_742_3pUTR_ENSMUSG00000029174_ENSMUST00000119756|mouse|control|control (ssRNA)
RNA: GGGAGUUCUACAGUCCGACGAUCUCGGCAGAUGAAUCCAAAGUGGUCCACAUGUCUGAUGCCCUGAGAGCAAAAGGAUAUCUCCUUAAAAUUUUUCUCCAGUGCAAUCUUUUUGGUGUCAGGACUGAUGAGGUAAACUUCAGACAACAGAGGAUUGAGCAUCA
B14: chr8:104447970:104447971:+_ENSG00000164934_ENST00000297579|hu_hu|hu_hu_hu_mus_False|78_78 (ssRNA)
RNA: GGGAGUUCUACAGUCCGACGAUCAUACACUUCCCUGCUUCGGCUCUUGUCCACAGGAAAGAUUCGAAUAGACUUAUCAAAGCUGGCAGACACAAAUUCCUUCCCAGUGGGAGAGUAGUCCACAUCAAGUACUGCAGACACGUGCAACAGAGGAUUGAGCAUCA
B15: chr9:95363179:95363180:-_ENSMUSG00000032407_ENSMUST00000079659|mus_hu|motif|central (ssRNA)
RNA: GGGAGUUCUACAGUCCGACGAUCUGAUCGCCUAGACCUUUUAGGUGUCCUUGAACCAGAUGGUGAUCUUUUGGCUUUUUUGCGGACAUCUCUAGGAGAAUCUUUGUGAGAUGACCUGGACCGUGAGCUCUCUUUAUGAGAUCUCAACAGAGGAUUGAGCAUCA
B16: chr11:68836070:68836071:+_ENSMUSG00000020898_ENSMUST00000116359|mus_hu|FALSE|FALSE (ssRNA)
RNA: GGGAGUUCUACAGUCCGACGAUCUCUCACAUAGAGGCUUCCGUUCCUGCACUCUUGUUCCAAGUCUGCCGAUAGGUCUGUUAGUGUCCCUAAAAGUAACAGCUGCUCUCGGGGCAGGGGGUUCCCAUUUGGUCCAGCCUCUUGCAACAGAGGAUUGAGCAUCA
B17: chr5:21408736:21408737:-_ENSMUSG00000042453_ENSMUST00000161356|mus_hu|mus_mus_mus_hu_False|48_108 (ssRNA)
RNA: GGGAGUUCUACAGUCCGACGAUCGUUGACAGCAUUAUAGAUGGUGGCUUCAUGGAACUGGAAAGGGGAGCAGCCAAUGCUGUUAGAAGAGGAAGGUAGGCACUGGGUCUGUACGAGCUGCCAGGAAUCCGAUCUUGCAUCCUUCAACAGAGGAUUGAGCAUCA
B18: chr15:95746395:95746396:+_ENSMUSG00000064210_ENSMUST00000071874|mus_hu|FALSE|FALSE (ssRNA)
RNA: GGGAGUUCUACAGUCCGACGAUCCCAUUCUCUGUACAGAAGGUACCGUUCAUUAGGGCAGCUGGGAUCCUCUGACUGACGGCGGAAUUUGCAAUCAUGGAGUGGGAAAGCUGCCUUGUAGAUCCCAGAGUUUACAAGUCUGUUCAACAGAGGAUUGAGCAUCA
B19: chr4:17845017:17845018:+_ENSG00000109805_ENST00000514176|hu_mus|hu_hu_hu_mus_False|48_48 (ssRNA)
RNA: GGGAGUUCUACAGUCCGACGAUCGCUCUCUUAACUUGUAUCUUCAUUAAGGAACUCUGCAAGGUUAAGUUUACUUUUCUGUAGCGCGCGGUUUUGGGCUCGUCUGGGUAAUCUCAUCUUCAUUUCUGAUGGUGGUUCAUGAUCCAACAGAGGAUUGAGCAUCA
B20: chr16:46990514:46990515:-_ENSG00000069345_ENST00000317089|hu_mus|motif|central (ssRNA)
RNA: GGGAGUUCUACAGUCCGACGAUCCAAACCCAUUGUGUGCAAAGCCCAUUUUUCCAUGCAUCUAAAUGAUAGAUACAGGCGGUGAAUUCUUUAUUCUAUUUGUAGCAGCUUAUGCAGGUGCAGCCAAACACAAAGCUUCAGGACCAACAGAGGAUUGAGCAUCA
B21: chr5:128440902:128440903:+_ENSG00000066583_ENST00000173527|hu_mus|hu_hu_hu_mus_True|8_88 (ssRNA)
RNA: GGGAGUUCUACAGUCCGACGAUCUUGAACGGUGCUGCCAAGUCCUUUAGGGUAUUGUUCCGUUAUGAUAACUGGAAUCCCUAAGAUCCGAGCUCCUUGCAACAGUCUCUGUCCCACACUAAUGAUGUCCCCAAAAUAUUUGAUCAACAGAGGAUUGAGCAUCA
B22: chr17:57724971:57724972:+_ENSG00000141367_ENST00000269122|hu_hu|FALSE|FALSE (ssRNA)
RNA: GGGAGUUCUACAGUCCGACGAUCCUGUGCAGAUAUACCAGUCAGAAGUAACCACUUUUGUUUUGCAUCUGUACGGUAAUUGAUAAUCUGGCACCCUGCAAGGCUAGAAUGGCGAUCAAACAUUUUCACUGGCUGAGACUCUCCCAACAGAGGAUUGAGCAUCA

This experiment addresses T1, UNK ZnF1-3. Nature of the experiment: nsRBNS (natural sequence RNA bind-n-seq); RBNS binding buffer (assumed for nsRBNS): 25 mM Tris pH 7.5, 150 mM KCl, 3 mM MgCl2, 0.01% Triton X-100, 500 ug/ml BSA, 20 U/ml SUPERase-In, 4 C; UNK is unkempt and MSI1 is Musashi-1; names of the RNAs are library labels; protein concentration not given here; high values mean tight binding.
B1 yielded a binding signal of 0.623 enrichment R. B2 came in with a binding signal of 0.493 enrichment R. In turn, B3 had a binding signal of 1.5 enrichment R. Then B4, with 0.883 enrichment R; and B5, with 0.737 enrichment R. Molecule B6 had a binding signal of 0.748 enrichment R. B7 yielded a binding signal of 1.08 enrichment R. Then B8, with 1.61 enrichment R; and B9, with 0.663 enrichment R.

B10 showed a binding signal of 1.04 enrichment R. In the case of B11, the binding signal was determined as 1.49 enrichment R.

The molecule B12 had a binding signal of 1 enrichment R.

The molecule B13 registered a binding signal of 0.918 enrichment R. Turning to B14, the binding signal was 1.01 enrichment R. The figure for B15 is 0.35 enrichment R; for B16 it is 0.949 enrichment R; for B17 it is 1.5 enrichment R. The figure for B18 is 0.741 enrichment R; for B19 it is 0.367 enrichment R. Then B20, with 1.29 enrichment R. Turning to B21, the binding signal is 0.753 enrichment R. The figure for B22 is 0.998 enrichment R.
